Data as given in PubChem BioAssay AID662 (National Center for Advancing Translational Sciences (NCATS), 2007).
Values joined by “and” are separate entries in the source; they are usually repeats but may differ in a detail not shown here. Equal values may be shown once. The whole screen tested about 71,000 compounds, of which about 1,800 (2.5%) were called active. Inconclusive results, whose numbers are uncertain, are shown with a selection of clear calls. Calls follow the shape of the dose curve; as a rule, active = well fitted activation curve with a large enough effect in the signal ratio, with a control signal flat (not every such curve was filed as active); inconclusive = small, poorly fitted or top-dose-only effect, or effect the other way, or a change in a side signal; inactive = flat fitted curve, though single readings scatter; the % refers to the signal ratio. Where the call is inconclusive, the potency comes from a doubtful curve fit.

Test: Cell signaling CRE-BLA (Fsk stim); as to activity change, negative = inhibition: % of control where 0% means no effect
Details: CHO CRE-bla reporter (cAMP response element driving beta-lactamase), forskolin EC10, beta-lactamase ratio; activity change, negative = inhibition: at 38.2 µM (top of the series) unless noted
In short: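 qHTS titration format; CRE-bla CHO reporter; stimulus EC10 NKH 477, a water-soluble forskolin. Read: CCF4 460/530 nm ratio. Potency expressed as AC50 for activators or inhibitors.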
Potency is read from the fitted curve at half-maximal effect; tags tell the direction and shape of the fitted curve.

| Structure (SMILES) | Potency | activity change, negative = inhibition |
| --- | --- | --- |
| CC(C)(C)c1cc(Cc2ccccc2)[nH]n1 | inconclusive: 10 µM [rising, partial curve] | – |
| COC(=O)c1ccc(COc2ccc3c(C)c(C)c(=O)oc3c2)o1 | inconclusive: 2 µM [rising, partial curve] | – |
| CCn1c2ccccc2c2nnc(SCC(=O)c3ccccc3)nc21 | active: 3.16 µM | – |
| O=C(OCC(=O)N1CCN(C(=O)c2ccco2)CC1)C1=COCCO1 | – | inconclusive: 29.4% |
| NC(=O)c1c(N)sc2c1CCCCC2 | – | inactive: 11.7% |
| O=C(CN(C1CCCCC1)S(=O)(=O)c1ccc(Cl)cc1)NCc1ccncc1 | – | inactive: -11.4% |
| COc1cc2ccc(=O)oc2c(O)c1OCC=C(C)C | – | inconclusive: 19.9% [fluorescent] and inconclusive: 8.54% |
| COc1ccc(NC(=O)Cn2nnc(C(=O)NCc3ccccc3)c2N)cc1Cl | – | inconclusive: 18.2% |
| Cn1ncc(Cl)c1C(=O)Nc1cccnc1 | – | inactive: -5.47% |
| Cn1c(=O)c2c(ncn2CC(=O)N2CCN(c3ccccc3F)CC2)n(C)c1=O | – | inconclusive: -13% [at 7.6 µM] |
| CCC(=O)Nc1ccc2oc(-c3ccccc3Br)nc2c1 | – | inactive: 18.9% |
| Cn1c(N2CCCC2)nc2c1c(=O)n(Cc1ccc(F)cc1)c(=O)n2C | active: 3.16 µM | – |
| O=C(Cc1ccccc1)NCCSCc1ccco1 | – | inconclusive: -15.6% [at 7.6 µM] |
| CCOC(=O)c1cnc2nc(C)[nH]n2c1=O | – | inconclusive: 5.19% |
| Cc1sc2ncnc(SCC(=O)NC(=O)NCc3ccco3)c2c1C | active: 12.6 µM | – |
| COC(=O)[C@@]1(Cc2ccc(OC)cc2)[C@H]2c3cc(C(=O)N4CCCC4)n(CCc4c[nH]c5ccccc45)c3C[C@H]2CN1C(=O)c1ccccc1 | inconclusive: 3.98 µM [falling, partial curve] | – |
| CCn1ncc(Br)c1C(=O)Nc1ccc(F)cc1F | inconclusive: 20 µM [rising, partial curve, poor fit] | – |
| COc1ccc(Cl)cc1C(=O)CSc1nc(N)cc(N)n1 | – | inactive: 19.7% |
| O=C(OCC1CO1)C1CCCCC1C(=O)OCC1CO1 (stereo not drawn) | – | inactive: -2.86% |
| O=C(O)CCc1ccc(-c2ccc(Br)cc2)n1CC(=O)O | – | inconclusive: -28.8% [at 7.6 µM] |
| O=C(Nc1ccc(Cl)cc1)c1ccsn1 | – | inconclusive: -18.6% |

| Structure (SMILES) | Potency | activity change, negative = inhibition |
| --- | --- | --- |
| Cc1c(NC(=O)C2CCCNC2=O)c(=O)n(-c2ccccc2)n1C (stereo not drawn) | – | inconclusive: -4.41% |
| CCOc1ccc(N2CC(C(=O)NCc3cccc(C)c3)CC2=O)cc1 (stereo not drawn) | – | inactive: -3.02% |
| CCCCOC(=O)CSc1nc(N)c(C#N)c(-c2ccc(OCC)cc2)c1C#N | – | inactive: 15% |
| c1ccc2c(c1)oc1c(Nc3ccc4c(c3)OCO4)ncnc12 | inconclusive: 10 µM [rising, partial curve] | – |
| CN(C)C=NC(=O)/C(C#N)=C1\CCc2ccccc2N1 | – | inactive: -0.000792% |
| Cc1ccsc1-c1nc(CSCC(=O)NCc2ccc3c(c2)OCO3)c(C)o1 | – | inactive: 20.4% |
| CC1=C(C(N)=O)C(c2cccc(O)c2)n2nc(CCCO)nc2N1 (stereo not drawn) | – | inactive: -1.19% |
| CC1(c2ccc3c(c2)OCO3)NC(=O)N(CC(=O)Nc2ccc(N3CCOCC3)cc2)C1=O (stereo not drawn) | – | inactive: -22.6% |
| O=C(O)CSc1ncccc1[N+](=O)[O-] | – | inactive: -8.38% [at 7.6 µM] |
| Cc1cc(NC(=O)c2cc(-c3ccccc3)on2)n(-c2ccccc2)n1 | – | inconclusive: 22% |
| FC(F)(F)c1cccc(Cl)c1 | – | inactive: -5.66% |
| CCCN1CCN(CCCNC(=O)Cn2nc(-c3ccccc3)ccc2=O)CC1 | – | inactive: -0.0927% |
| CCCc1cc(=O)oc2cc(C)c3c(C)coc3c12 | inconclusive: 10 µM [rising, partial curve] | – |
| O=C=Nc1ccc(Cl)c(Cl)c1 | inconclusive: 31.6 µM [falling, single point] | – |
| CN(C)CCCNC(=O)C1CCNCC1 | – | inactive: -2.56% |
| O=C1OC2(c3ccc(O)cc3Oc3cc(O)ccc32)c2c1c(-c1ccccc1)c(-c1ccccc1)c(-c1ccccc1)c2-c1ccccc1 | – | inconclusive: -27.4% [at 7.6 µM] |
| COc1cc2c(cc1OC)-c1cc3nc4ccccc4nc3n1C(C)(C)C2 | inconclusive: 0.631 µM [rising, full curve] | – |
| COc1cccc(NC(=O)CSc2nnc(-c3cc(-c4ccccn4)nc4ccccc34)o2)c1 | inconclusive: 3.98 µM [rising, single point] | – |
| CCOc1cc2[nH]c(=O)n(CCCCC(=O)NCc3ccco3)c(=O)c2cc1OCC | inconclusive: 0.0398 µM [falling, full curve, poor fit] | – |
| COc1ccc(COC2OC[C@]3(C)[C@H]4C5=C(CN3C(=O)OC(C)(C)C)[C@H](C)C(CO)C(CO)C5CC[C@@H]24)cc1 (stereo partly drawn) | – | inactive: -5.55% |
| O=C(COC(=O)CNC(=O)c1ccco1)NCCN1C(=O)CSC1=O | – | inconclusive: -7.23% |

| Structure (SMILES) | Potency | activity change, negative = inhibition |
| --- | --- | --- |
| CCN(CC)c1ncnc2c1cnn2C | inconclusive: 12.6 µM [rising, single point] | – |
| Cc1ccc(CN2C(=O)C(C)(C)Oc3ccc(C(=O)N4CCCCC4)cc32)cc1 | inconclusive: 10 µM [rising, partial curve] | – |
| Cc1cccn2c(=O)c3cc(C(=O)NCC4CCCO4)n(C)c3nc12 (stereo not drawn) | – | inconclusive: -2.39% |
| O=C(CC(c1ccccc1)c1cc(Cl)ccc1O)N1CCOCC1 (stereo not drawn) | – | inactive: -1.95% |
| Cc1ccc(O)c(CC(C)C)n1 | – | inconclusive: -5.86% |
| O=C(O)c1cc(S(=O)(=O)O)ccc1O | inconclusive: 20 µM [rising, single point] | – |
| Cc1nc2ncnn2c(C)c1CCC(=O)NC(C)c1ccc2c(c1)OCCO2 (stereo not drawn) | – | inactive: -2.55% |
| COc1ccccc1CNc1ncnc2ccc(-c3ccc4c(c3)OCO4)cc12 | – | inconclusive: 22.6% |
| Cc1cc(NC(=O)CSc2nc(C(C)C)nc3c2c(=O)n(C)c(=O)n3C)no1 | active: 10 µM | – |
| COc1ncc2nc(C)c(=O)n(-c3ccccc3)c2n1 | – | inactive: -3.02% |
| COc1cccc(Oc2cnc(N)nc2-c2ccc(OC)cc2O)c1 | – | inactive: 12.6% |
| Cc1ccccc1-c1nc(CN2CCC(C(=O)N3CCN(c4ccccn4)CC3)CC2)c(C)o1 | – | inactive: -12.1% |
| CCN(CCCNC(=O)C1CCN(S(=O)(=O)CC)CC1)c1ccccc1 | – | inconclusive: -9.9% |
| Nc1cccc2cnccc12 | – | inconclusive: -22.9% |
| O=C(Cn1c(-c2ccccc2)noc1=O)Nc1ccc(N2CCCCCC2)cc1 | – | inactive: -0.104% |
| O=c1cc(-c2ccc(O)cc2)oc2c([C@H]3O[C@@H](CO)[C@@H](O)[C@@H](O)[C@@H]3O)c(O)cc(O)c12 | – | inactive: -6.39% [at 17.1 µM] |
| CC(=NCCN1CCOCC1)C1=C(O)c2ccccc2C1=O | inconclusive: 12.6 µM [rising, single point] | – |
| COc1ccc(CCNC(=O)c2cc(-c3cc(C)c(C)cc3O)n[nH]2)cc1OC | – | inconclusive: -5.12% |
| CN(C)c1ccc(CN2CCCCCC2)cc1 | – | inconclusive: -9.32% [at 7.6 µM] |
| O=C(Cn1nnc2c(cnn2-c2ccccc2)c1=O)NCc1cccs1 | – | inactive: -3% |
| COc1cc(Nc2cc(C)nc3ncnn23)cc(OC)c1 | inconclusive: 15.8 µM [rising, single point] | – |

| Structure (SMILES) | Potency | activity change, negative = inhibition |
| --- | --- | --- |
| O=C(Nn1cnnc1)c1cc(-c2ccccn2)nc2ccccc12 | – | inconclusive: -18.5% |
| CC1CCCN(CC(=O)Nc2ccc(S(=O)(=O)NC3CCCCC3)cc2)C1 (stereo not drawn) | – | inactive: 8.48% |
| CC1CC(N(C(=O)c2ccco2)c2ccccc2)c2ccccc2N1 (stereo not drawn) | – | inactive: 5.33% |
| CCOC(=O)c1oc2c(CN3CCCCC3C)c(O)ccc2c(=O)c1-c1ccc(OC)c(OC)c1 (stereo not drawn) | – | inconclusive: 22.8% |
| CN1CCN(c2nc(-c3cccc(C#N)c3)nc3ccccc23)CC1 | inconclusive: 12.6 µM [rising, single point] | – |
| C=C(C)C1Cc2nc(N)nc(C)c2C1 (stereo not drawn) | inconclusive: 10 µM [rising, single point] | – |
| Cc1cccn2c(=O)c3cc(C(=O)N4CCc5ccccc54)n(C)c3nc12 | inconclusive: 2 µM [rising, partial curve] | – |
| COc1ccc(CNc2nc(-c3ccccc3CN(C)C)nc3ccccc23)c(OC)c1 | inconclusive: 15.8 µM [rising, single point] | – |
| CCSc1nnc(NC(=O)CCNS(=O)(=O)c2cc(Br)cnc2N)s1 | inconclusive: 20 µM [falling, partial curve] | – |
| O=C1CCCCCC1C1(O)C(=O)Nc2ccc(Br)cc21 (stereo not drawn) | – | inconclusive: -1.58% |
| c1csc(-c2cnc3ccccc3n2)c1 | – | inconclusive: 23.3% |
| C=CCn1c(=O)/c(=C/c2ccc(Cl)cc2)s/c1=C(/C#N)c1nnc2n1CCCCC2 | inconclusive: 12.6 µM [rising, single point] | – |
| CCC(C)(C)NC(=O)CN(C(=O)c1snc(C(N)=O)c1N)c1ccc2c(c1)OCCO2 | – | inconclusive: 1.41% |
| CC(=O)O[C@@H]1CC[C@]2(C)[C@H]3CC[C@]4(C)[C@H](C[C@H]5CCCC[C@@]54C(C)=O)[C@@H]3CC(=O)[C@@]2(O)C1 | – | inactive: 8.96% |
| c1ccc(N2CCN(CCCOc3ccc4c(c3)OCO4)CC2)cc1 | inconclusive: 12.6 µM [rising, single point] | – |
| CCOc1ccccc1NC(=O)CSc1nnc(-c2ccccc2Cl)n1Cc1ccco1 | – | inconclusive: -10.9% |
| COC(=O)c1cc(CSc2nnc(NC3CCCCC3)s2)oc1C | inconclusive: 3.16 µM [rising, partial curve] | – |
| NC(=O)c1cc2ccc(O)cc2oc1=Nc1ccccc1 | inconclusive: 10 µM [rising, partial curve] | – |
| O=P(O)(CN1CCCCC1)CN1CCCCC1 | – | inactive: -2.2% |
| CCn1c2ccccc2c2nnc(SCN3C(=O)c4ccccc4C3=O)nc21 | inconclusive: 0.316 µM [rising, full curve] | – |
